{
  "source": "the RNAGym collection of RNA variant scans (doi:10.7554/elife.90254)",
  "parents": {"B1": {"name": "LINE1-mini (parent)", "chain": "GGCAGAGCUCAACACAGCGUGGCAAAGUGGCUGUGGCUAGACUGCC"}},
  "note": "The source gives no read counts; variants with many changes may rest on few reads.",
  "data": [
    {"variants_of": "B1", "test": "self-cleavage, relative activity (ratio to wild type); higher = more cleavage; in vitro, sequencing; the parent is a self-cleaving ribozyme", "values": [
      {"variant": "GUCAGAGCUCAACACAGCGUGGCAAAGUGGCGGCGGCUAGACUGCG", "note": "[G2U U32G U34C C46G]", "self-cleavage": 0},
      {"variant": "GGCAGAGCUCAACAGAGACCGGCAAAGUGGCUGUGGCUAGACUGCG", "note": "[C15G C18A G19C U20C C46G]", "self-cleavage": 0.08},
      {"variant": "GGCAGAGCUCAACACAGCGUGGCAAAGUGGCGCUGCCUAGACUGCC", "note": "[U32G G33C G36C]", "self-cleavage": 0.09},
      {"variant": "GGCAGAGCUCGACACAGCGUGGCAAAGUGGAUGUGUCUAGACUGCC", "note": "[A11G C31A G36U]", "self-cleavage": 0.01},
      {"variant": "AGCAGGGCUCAACACAGCGGGGCAGAGUGGCUGUGGCUACACUGCU", "note": "[G1A A6G U20G A25G G40C C46U]", "self-cleavage": 0.04},
      {"variant": "GUCAGAGCUCAACACAGCGUGGCAAAGUGGCUCUGCCUAGACUGCC", "note": "[G2U G33C G36C]", "self-cleavage": 0.04},
      {"variant": "GGCAGAGCUCUACACAGCGUAGCUAAGUGGCGGUGGCUAGACUGCC", "note": "[A11U G21A A24U U32G]", "self-cleavage": 0.04},
      {"variant": "GGCAGAGCGCAACACAGCGUGGCCAAGUGGCUGUGGCUAGAUUGCC", "note": "[U9G A24C C42U]", "self-cleavage": 0.01},
      {"variant": "GGCCGAGCUCGACUCAGCGUGCCAAAGUGGCUGUGGCUAGACUGCC", "note": "[A4C A11G A14U G22C]", "self-cleavage": 0.1},
      {"variant": "GGCAGAGCUCAACAUAGUGUGGCAAUGUGGCAGUGACUAGACUGCC", "note": "[C15U C18U A26U U32A G36A]", "self-cleavage": 0.03},
      {"variant": "GGCAGAGCUAAACACCGCGUGGCAAAGUGGCUGUGGCUAGACUGCU", "note": "[C10A A16C C46U]", "self-cleavage": 0.02},
      {"variant": "GGCAGAGCCAAACACCGCGUGGCAAAGUGGCUGUGGCUAGACUGCC", "note": "[U9C C10A A16C]", "self-cleavage": 0},
      {"variant": "GGGAGAGCUAAACACAGCGUGGCAAAGUGGGUGUGGCUAAACUGCC", "note": "[C3G C10A C31G G40A]", "self-cleavage": 0.01},
      {"variant": "GGCAGCGCCCAACACAGCGUGGCAAAGUGGCUGUGAUUAGACUGCC", "note": "[A6C U9C G36A C37U]", "self-cleavage": 0.05},
      {"variant": "GGCAGAGAUCAACUCAGCGUGGCAAAGUGGCUUUGGCUAGACUGCC", "note": "[C8A A14U G33U]", "self-cleavage": 0.12},
      {"variant": "GGCAGAGGUCAACAAAGCGUGGGAAAGUGGCUGUGGCUGGACUGCC", "note": "[C8G C15A C23G A39G]", "self-cleavage": 0.01},
      {"variant": "GGCAGAGGUCAACACAUCGUGGCAAAGUGGCUGUGGCUAGACAGGC", "note": "[C8G G17U U43A C45G]", "self-cleavage": 0.02},
      {"variant": "GGCUGAGCUCAACGCAGCGUGACAAAGUGGCUGUGGCUAGGCUGCC", "note": "[A4U A14G G22A A41G]", "self-cleavage": 0.01},
      {"variant": "GGCAGAACUCAACCCAGCUUGGCAAAGUGGCUGUGGCUAGACUGCC", "note": "[G7A A14C G19U]", "self-cleavage": 0.03},
      {"variant": "GGCAGAGCUCAACCCAGCGUGGCAAGCUGGAUGUGGCUAGACUGCC", "note": "[A14C A26G G27C C31A]", "self-cleavage": 0},
      {"variant": "GCCAGAGCUCAACCCAGAGUGGUAAAGUGGCUGUGGCUAGACUGCC", "note": "[G2C A14C C18A C23U]", "self-cleavage": 0.02},
      {"variant": "GGAAGAGCUCAACACAGCGUGGCACAGUGGGUGUGGCUAGACUGCC", "note": "[C3A A25C C31G]", "self-cleavage": 0.14},
      {"variant": "GGCAGAACUCAACAAAUCGUGGACAAGUGGCUGUGGAUAGACUGCC", "note": "[G7A C15A G17U C23A A24C C37A]", "self-cleavage": 0.06},
      {"variant": "GGUAGUGCUCAACACAGCGUGGCAACGUGGCUGUGGCCAGCCUGGC", "note": "[C3U A6U A26C U38C A41C C45G]", "self-cleavage": 0.2},
      {"variant": "GGCAGAGCUCAACACAGCGCGGCAAAGUGGCUGUGGCUAGGCUGCA", "note": "[U20C A41G C46A]", "self-cleavage": 0.46},
      {"variant": "GGCAGAGCUCAACCCAGCGUGGUAAAGUGGCUCUGGCUAGACUGCC", "note": "[A14C C23U G33C]", "self-cleavage": 0.05},
      {"variant": "GGCAGAGCUCAGAACAUCGUGGCAAAGUGCCUGUGGCCAGAUUGCC", "note": "[A12G C13A G17U G30C U38C C42U]", "self-cleavage": 0.03},
      {"variant": "GGCAGAGCUGAACAGAGCUUGGCAAAGUGGCUGUGGCAAGACUGCC", "note": "[C10G C15G G19U U38A]", "self-cleavage": 0.01},
      {"variant": "GGCAGAGCUCAACACAGCGUGGCAAAGUGGCCGUGGCUCAACUGCC", "note": "[U32C A39C G40A]", "self-cleavage": 0.1},
      {"variant": "GGUAGAGCUCAACACAGCGUGGCAAAUUGGCUGUGGCUACACUGCC", "note": "[C3U G27U G40C]", "self-cleavage": 0.07},
      {"variant": "GGCAGAGCUCAACUCCGCGUGGCUAAGCGGCUGUGGCUAGACUGCC", "note": "[A14U A16C A24U U28C]", "self-cleavage": 0.13},
      {"variant": "GGCAGAGCUCAACACAGCGUGGCCAAGUGGCUUUGGCUAAACUGCC", "note": "[A24C G33U G40A]", "self-cleavage": 0.06},
      {"variant": "GGAAGAGCUCAACACAGCGUGGAAAAGGGGCUGUAGCUAGACUGCC", "note": "[C3A C23A U28G G35A]", "self-cleavage": 0.67},
      {"variant": "GACAGAGCUCAACACAGCGUGGCUAAGUGGCUGUGGCGAGACUGCC", "note": "[G2A A24U U38G]", "self-cleavage": 0.06},
      {"variant": "GGCAGAGCUCCACACAGCGUCGCAAAGUGGGUGUGGCUAGACUGCC", "note": "[A11C G21C C31G]", "self-cleavage": 0.01},
      {"variant": "GACAGAGCUCAACACAGCGUGUCAAAGUCGCUGUGCCUCGAGUGCC", "note": "[G2A G22U G29C G36C A39C C42G]", "self-cleavage": 0.03},
      {"variant": "GGCGGAGCUCAACACAGCGUGGCAAAGCCGCUGUGGCUAGACUGCC", "note": "[A4G U28C G29C]", "self-cleavage": 0.1},
      {"variant": "GGCAGACCUCAACACAGCUUGACAAAGUGGAUGUGGCGAGACUGCC", "note": "[G7C G19U G22A C31A U38G]", "self-cleavage": 0.01},
      {"variant": "GGCAGAGCUCAACACAUCGUCGCAAAGUGGCGGUGGCUAGACUGCU", "note": "[G17U G21C U32G C46U]", "self-cleavage": 0.02},
      {"variant": "GGCAGAGAUCAACACAGCGUGGCAAAAUGGCUAUGGCUAGACUGAC", "note": "[C8A G27A G33A C45A]", "self-cleavage": 0.13},
      {"variant": "GGUAGAGCUCAACACAGCGUGGCAAAGUUGCUGUGGCUAUACUGCC", "note": "[C3U G29U G40U]", "self-cleavage": 0.04},
      {"variant": "GGCUGAGCUCAACGCAGCCUGGCAAAUUGGCUGUGGGUAGAUUGCA", "note": "[A4U A14G G19C G27U C37G C42U C46A]", "self-cleavage": 0.02},
      {"variant": "GGCAGUGCUCAACGCAGCGUGCCAAAGUGGCUGUGGCUAGACUGCC", "note": "[A6U A14G G22C]", "self-cleavage": 0.06},
      {"variant": "GGCAGAGCUCAACACAGCGUGGCCAAGUGGCUGUGGCAAGCCUGCA", "note": "[A24C U38A A41C C46A]", "self-cleavage": 0.02},
      {"variant": "GGCGGAGCUCAACACAGCGUGGCAAGGUGGCUGAGGCUAGAUUGCC", "note": "[A4G A26G U34A C42U]", "self-cleavage": 0.13},
      {"variant": "AGCAGACCUCAGCACAGCGUGGCAAAGUGGCUGUGUAUAGACUGAC", "note": "[G1A G7C A12G G36U C37A C45A]", "self-cleavage": 0.44},
      {"variant": "GGCAGAGCUCAAGACAGCGUGGCAAAGUGGCGUUGGCUAGACUGCA", "note": "[C13G U32G G33U C46A]", "self-cleavage": 0.03},
      {"variant": "GGUAGAACUCAACACAGCGUGGAAAAGUGGCGGUGGCUAGACUGCC", "note": "[C3U G7A C23A U32G]", "self-cleavage": 0.07},
      {"variant": "GCCAGAGCUUAUCACAGCUUGGCAAAGUGGCUGUGGCUAGACUGCC", "note": "[G2C C10U A12U G19U]", "self-cleavage": 0.05},
      {"variant": "GGCAGAGCUCAACACAGCGUGGCAAAGUGGCUUUGGCUAGAUUGGC", "note": "[G33U C42U C45G]", "self-cleavage": 0.03},
      {"variant": "GGCAGAGAACAACACAGCAUGGCAGAGUGGCUGAGGCUAGACUGCC", "note": "[C8A U9A G19A A25G U34A]", "self-cleavage": 0.15},
      {"variant": "GGCAGAGCUCAACACAGCGUCGCAAAGUGGCUGAGGCUAUACUGCC", "note": "[G21C U34A G40U]", "self-cleavage": 0.01},
      {"variant": "GGCAGAGCUCACCACAGCGUGGCAAAGAAGCUGUGGCUAGACAGUC", "note": "[A12C U28A G29A U43A C45U]", "self-cleavage": 0.01},
      {"variant": "GGCAAAGCUCAACACAGGGUGGCAAAGUGGCUGUGACUAGAUUGAC", "note": "[G5A C18G G36A C42U C45A]", "self-cleavage": 0.02},
      {"variant": "GGCAGAGCUUAACACAGCGUGCCAAAGUGGCUGUGGCUGGACUGCC", "note": "[C10U G22C A39G]", "self-cleavage": 0.06},
      {"variant": "GGCACAGCUCAACACACCGUGGCAAAGUGGCUGUAGCUAUACUGCC", "note": "[G5C G17C G35A G40U]", "self-cleavage": 0.01}
    ]}
  ]
}
